{"source": "the supplement of paper PMC11876631", "proteins": {"B1": {"name": "ribF L54Q (protein)", "chain": "MKLIRGIHNLSQAPQEGCVLTIGNFDGVHRGHRALLQGLQEEGRKRNLPVMVMQFEPQPLELFATDKAPARLTRLREKLRYLAECGVDYVLCVRFDRRFAALTAQNFISDLLVKHLRVKFLAVGDDFRFGAGREGDFLLLQKAGMEYGFDITSTQTFCEGGVRISSTAVRQALADDNLALAESLLGHPFAISGRVVHGDELGRTIGFPTANVPLRRQVSPVKGVYAVEVLGLGEKPLPGVANIGTRPTVAGIRQQLEVHLLDVAMDLYGRHIQVVLRKKIRNEQRFASLDELKAQIARDELTAREFFGLTKPA"}, "B2": {"name": "ribF V90W (protein)", "chain": "B1 chain with Q54L, V90W"}, "B3": {"name": "ribF V90A (protein)", "chain": "B1 chain with Q54L, V90A"}, "B4": {"name": "ribF L91P (protein)", "chain": "B1 chain with Q54L, L91P"}, "B5": {"name": "ribF V90Q (protein)", "chain": "B1 chain with Q54L, V90Q"}, "B6": {"name": "ribF L91W (protein)", "chain": "B1 chain with Q54L, L91W"}, "B7": {"name": "ribF L54D (protein)", "chain": "B1 chain with Q54D"}, "B8": {"name": "ribF L91A (protein)", "chain": "B1 chain with Q54L, L91A"}, "B9": {"name": "ribF L54P (protein)", "chain": "B1 chain with Q54P"}, "B10": {"name": "ribF V90P (protein)", "chain": "B1 chain with Q54L, V90P"}, "B11": {"name": "ribF L91Q (protein)", "chain": "B1 chain with Q54L, L91Q"}, "B12": {"name": "ribF L91D (protein)", "chain": "B1 chain with Q54L, L91D"}, "B13": {"name": "ribF V90D (protein)", "chain": "B1 chain with Q54L, V90D"}, "B14": {"name": "ribF V93A (protein)", "chain": "B1 chain with Q54L, V93A"}}, "target": "Escherichia coli (laboratory strain)", "assay": "barcode share on antibiotic plates over drug-free plates; higher = less susceptible", "method": "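A pool of E. coli strains, each edited to carry one amino-acid change in an essential protein, was grown for 48 h on minimal glucose agar with or without antibiotic; strain barcodes were sequenced; mean of two replicates.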", "key": {"[1]": {"conditions": "antibiotic: carbenicillin, 2× MIC (3.1 µg/mL)"}, "[2]": {"conditions": "antibiotic: gentamicin, 2× MIC (MIC 0.45 µg/mL)"}}, "note": "Residue numbers refer to the chain shown, from its start. Names may count otherwise. ± gives the standard deviation of the averaged measurements. Laboratory Escherichia coli strains with one amino-acid change in an essential protein, pooled on minimal glucose agar with carbenicillin or gentamicin at twice the control MIC (plus kanamycin and chloramphenicol for the plasmids), 48 h. Fold change of barcode share against drug-free plates; higher = less susceptible. Active = above 20 in both replicates (the paper's putatively resistant). '<' = one read or none on drug, '>' = one read or none on a drug-free plate. Shares are relative, so most strains fall below 1 when a few take over. Listed are strains with at least 15 reads on both drug-free plates, and hits; most hits rest on fewer reference reads. Replicate rank correlation about 0.5. Edits are read from barcodes.", "data": [{"protein": "B1", "values": [{"measurement": "fold change of barcode share", "setting": "[1]", "result": "0.3 ± 0.036"}, {"measurement": "fold change of barcode share", "setting": "[2]", "result": "< 0.00183"}]}, {"protein": "B2", "values": [{"measurement": "fold change of barcode share", "setting": "[1]", "result": "0.361 ± 0.021"}, {"measurement": "fold change of barcode share", "setting": "[2]", "result": "0.00385 ± 0.0036"}]}, {"protein": "B3", "values": [{"measurement": "fold change of barcode share", "setting": "[1]", "result": "0.383 ± 0.24"}, {"measurement": "fold change of barcode share", "setting": "[2]", "result": "0.00486 ± 0.0041"}]}, {"protein": "B4", "values": [{"measurement": "fold change of barcode share", "setting": "[1]", "result": "0.264 ± 0.066"}, {"measurement": "fold change of barcode share", "setting": "[2]", "result": "0.00233 ± 0.0019"}]}, {"protein": "B5", "values": [{"measurement": "fold change of barcode share", "setting": "[1]", "result": "0.564 ± 0.34"}, {"measurement": "fold change of barcode share", "setting": "[2]", "result": "0.00411 ± 0.00062"}]}, {"protein": "B6", "values": [{"measurement": "fold change of barcode share", "setting": "[1]", "result": "0.29 ± 0.019"}, {"measurement": "fold change of barcode share", "setting": "[2]", "result": "0.00316 ± 0.0012"}]}, {"protein": "B7", "values": [{"measurement": "fold change of barcode share", "setting": "[1]", "result": "0.31 ± 0.05"}, {"measurement": "fold change of barcode share", "setting": "[2]", "result": "0.555 ± 0.75"}]}, {"protein": "B8", "values": [{"measurement": "fold change of barcode share", "setting": "[1]", "result": "0.415 ± 0.27"}, {"measurement": "fold change of barcode share", "setting": "[2]", "result": "0.0069 ± 0.0077"}]}, {"protein": "B9", "values": [{"measurement": "fold change of barcode share", "setting": "[1]", "result": "0.326 ± 0.076"}, {"measurement": "fold change of barcode share", "setting": "[2]", "result": "0.12 ± 0.15"}]}, {"protein": "B10", "values": [{"measurement": "fold change of barcode share", "setting": "[1]", "result": "0.275 ± 0.049"}, {"measurement": "fold change of barcode share", "setting": "[2]", "result": "0.00605 ± 0.0032"}]}, {"protein": "B11", "values": [{"measurement": "fold change of barcode share", "setting": "[1]", "result": "0.3 ± 0.062"}, {"measurement": "fold change of barcode share", "setting": "[2]", "result": "0.00153 ± 0.00089"}]}, {"protein": "B12", "values": [{"measurement": "fold change of barcode share", "setting": "[1]", "result": "0.46 ± 0.082"}, {"measurement": "fold change of barcode share", "setting": "[2]", "result": "0.008 ± 0.0021"}]}, {"protein": "B13", "values": [{"measurement": "fold change of barcode share", "setting": "[1]", "result": "0.312 ± 0.11"}, {"measurement": "fold change of barcode share", "setting": "[2]", "result": "0.00258 ± 0.002"}]}, {"protein": "B14", "values": [{"measurement": "fold change of barcode share", "setting": "[1]", "result": "0.411 ± 0.28"}, {"measurement": "fold change of barcode share", "setting": "[2]", "result": "0.00537 ± 0.0031"}]}]}
